The term Kd denotes a measure of binding affinity in units of concentration.

The results in this text go back to paper PMC10979101.

Assay in all cases: flow
Assay [1] concerns the target Gab2 peptide 503-524 (Homo sapiens) (UniProt Q9UQC2).
Assay [2] has the same target. This is another data set of the same source.
For assay [3] the target is unchanged. This is another data set of the same source.

Read-outs that look alike come from different tables or passages of the source.

As for “Grb2 SH2-SH3 SH2-C-SH3 (sequence not shown)”, the Kd came out at 7 µM in assay [1], 6.5 µM in assay [2] and 2.3 µM in assay [3].
